In the supplement of paper PMC8728848:
The list shows a part of the results.

Tests used:
Test in all cases: glycan array binding signal (z-score within array); higher = stronger binding
Settings in all cases: glycan notation: IUPAC condensed, linker removed
[1] = target: Gal(b1-4)GlcNAc(b1-3)GalNAc
Outline: (§1)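 Columns mapping to the same glycan were averaged after glycan names were converted to IUPAC-condensed notation. The data come from 3228 arrays in the Consortium for Functional Glycomics database, limited to those with an available protein sequence. Binding is reported as a within-array Z-score averaged across arrays of one protein sequence and across linkers.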

[2] = target: Gal(b1-4)GlcNAc(b1-3)[Gal(b1-4)GlcNAc(b1-6)]GalNAc
Outline: as §1

[3] = target: Gal(b1-4)GlcNAc(b1-6)Gal(b1-4)GlcNAc(b1-6)GalNAc
Outline: as §1

[4] = target: Gal(b1-4)GlcNAc(b1-6)GalNAc
Outline: as §1

[5] = target: Gal(b1-4)GlcNAc(b1-6)[Gal(b1-3)]GalNAc
Outline: as §1

[6] = target: Gal3S(b1-3)GalNAc
Outline: as §1

[7] = target: Gal3S(b1-3)GlcNAc
Outline: as §1

[8] = target: Gal3S(b1-3)[Fuc(a1-4)]GlcNAc
Outline: as §1

[9] = target: Gal3S(b1-4)Glc
Outline: as §1

[10] = target: Gal3S(b1-4)Glc6S
Outline: as §1

[11] = target: Gal3S(b1-4)GlcNAc
Outline: as §1

[12] = target: Gal3S(b1-4)GlcNAc6S
Outline: as §1

[13] = target: Gal3S6S(b1-4)GlcNAc
Outline: as §1

[14] = target: Gal3S6S(b1-4)GlcNAc6S
Outline: as §1

[15] = target: Gal4S(b1-4)GlcNAc
Outline: as §1

[16] = target: Gal4S6S(b1-4)GlcNAc
Outline: as §1

[17] = target: Gal6S(b1-4)Glc
Outline: as §1

[18] = target: Gal6S(b1-4)Glc6S
Outline: as §1

[19] = target: Gal6S(b1-4)GlcNAc
Outline: as §1

[20] = target: GalNAc(a1-3)Gal
Outline: as §1

[21] = target: GalNAc(a1-3)GalNAc
Outline: as §1

[22] = target: GalNAc(b1-3)Gal(a1-4)Gal(b1-4)GlcNAc
Outline: as §1

[23] = target: GalNAc(b1-3)GalNAc
Outline: as §1

[24] = target: GalNAc(b1-4)GlcNAc
Outline: as §1

[25] = target: Glc(a1-4)Glc
Outline: as §1

[26] = target: Glc(a1-6)Glc(a1-6)Glc
Outline: as §1

[27] = target: Glc(b1-4)Glc
Outline: as §1

[28] = target: Glc(b1-6)Glc
Outline: as §1

[29] = target: GlcA(b1-3)Gal
Outline: as §1

[30] = target: GlcA(b1-6)Gal
Outline: as §1

[31] = target: GlcNAc(a1-3)Gal(b1-4)GlcNAc
Outline: as §1

[32] = target: GlcNAc(a1-6)Gal(b1-4)GlcNAc
Outline: as §1

[33] = target: GlcNAc(b1-2)Gal(b1-3)GalNAc
Outline: as §1

[34] = target: GlcNAc(b1-2)Man(a1-3)[GlcNAc(b1-2)Man(a1-6)]Man(b1-4)GlcNAc(b1-4)GlcNAc
Outline: as §1

[35] = target: GlcNAc(b1-3)Gal
Outline: as §1

[36] = target: GlcNAc(b1-3)Gal(b1-3)GalNAc
Outline: as §1

[37] = target: GlcNAc(b1-3)Gal(b1-4)Glc
Outline: as §1

B1: F17fG (Escherichia coli), Q9RH91 (protein)
chain: MTNFYKVFLAVFILVCCNISHAAVSFIGSTENDVGPSQGSYSSTHAMDNLPFVYNTGHNIGYQNANVWRISGGFCVGLDGKVDLPVVGSLDGQSIYGLTEEVGLLIWMGDTNYSRGTAMSGNSWENVFSGWCVGNYVSTQGLSVHVRPVILKRNSSAQYSVQKTSIGSIRMRPYNGSSAGSVQTTVNFSLNPFTLNDTVTSCRLLTPSAVNVSLAAISAGQLPSSGDEVVAGTTSLKLQCDAGVTVWATLTDATTPSNRSDILTLTGASTATGVGLRIYKNTDSTPLKFGPDSPVKGNENQWQLSTGTETSPSVRLYVKYVNTGEGINPGTVNGISTFTFSYQ
glycan array binding signal (z-score) [1]: -0.357 | glycan array binding signal (z-score) [2]: -0.37 | glycan array binding signal (z-score) [3]: -0.352 | glycan array binding signal (z-score) [4]: -0.328 | glycan array binding signal (z-score) [5]: -0.363 | glycan array binding signal (z-score) [6]: -0.179 | glycan array binding signal (z-score) [7]: -0.258 | glycan array binding signal (z-score) [8]: -0.253 | glycan array binding signal (z-score) [9]: -0.106 | glycan array binding signal (z-score) [10]: -0.146 | glycan array binding signal (z-score) [11]: -0.139 | glycan array binding signal (z-score) [12]: -0.038 | glycan array binding signal (z-score) [13]: 0.156 | glycan array binding signal (z-score) [14]: 0.243 | glycan array binding signal (z-score) [15]: -0.032 | glycan array binding signal (z-score) [16]: 0.026 | glycan array binding signal (z-score) [17]: -0.277 | glycan array binding signal (z-score) [18]: -0.125 | glycan array binding signal (z-score) [19]: -0.127 | glycan array binding signal (z-score) [20]: -0.286 | glycan array binding signal (z-score) [21]: -0.34 | glycan array binding signal (z-score) [22]: -0.372 | glycan array binding signal (z-score) [23]: 1.71 | glycan array binding signal (z-score) [24]: -0.327 | glycan array binding signal (z-score) [25]: -0.363 | glycan array binding signal (z-score) [26]: -0.362 | glycan array binding signal (z-score) [27]: -0.329 | glycan array binding signal (z-score) [28]: -0.088 | glycan array binding signal (z-score) [29]: -0.075 | glycan array binding signal (z-score) [30]: -0.209 | glycan array binding signal (z-score) [31]: -0.323 | glycan array binding signal (z-score) [32]: -0.364 | glycan array binding signal (z-score) [33]: -0.315 | glycan array binding signal (z-score) [34]: -0.238 | glycan array binding signal (z-score) [35]: 5.09 | glycan array binding signal (z-score) [36]: 5.89 | glycan array binding signal (z-score) [37]: 4.83
